This is one part of the list. Single values are uncertain, as repeats are few or missing.
Each compound was assayed on Candida albicans DPL-15 (assay: growth (OD600) after compound treatment (apparently relative to screen median) (relative growth (fraction; screen median 1.02)); DPL-15 is a caspofungin-resistant clinical isolate; higher = more fungal growth (less antifungal activity)). Settings: 25 µM; RPMI 1640; 48 h; 30 °C.

Structure (SMILES) | growth
COC(=O)C1=C(C)N(CC#C[Si](C)(C)C)C(=O)N(C(C)=O)C1c1ccccc1 (configuration not stated) | 1.15
COCOC1CCC(=O)C(C(=O)OC)=C1I (configuration not stated) | 0.984
CCCN1C(=S)NC(c2cccc(OC)c2)C(C(C)=O)=C1C (configuration not stated) | 1
COc1ccc([C@@H]2[C@@H](C(=O)NCC3CC3)[C@H](C(=O)NCC3CC3)[C@H]2c2ccc(OC)c(OC)c2)cc1OC | 1.11
COC(=O)[C@]1([C@H]2C=CC(=O)O2)CC(=O)c2c(O)cccc2O1 | 1.04
COC(=O)C1=C(C)N(CCCOC(C)C)C(NCC2CCCCC2)=NC1c1ccccc1 (configuration not stated) | 1.15
COc1ccc(N2C(=O)C3=C(C(CC(C)C)=NCCN3C)C2c2ccc(F)cc2)cc1 (configuration not stated) | 1.01
Cc1nnc(C)c2c1CCOC[C@@H](c1ccccc1)NC(=O)[C@@H]1C[C@@H](O)CN1C(=O)c1cccc-2n1 | 1.03
COc1ccccc1C1c2c(CC(C)C)n[nH]c2C(=O)N1c1ccc2c(c1)OCO2 (configuration not stated) | 1.07
Nc1c(-c2ccccc2)cnc2c(-c3ccccc3)cnn12 | 0.922
COCCN1C(=O)c2[nH]nc(CC(C)C)c2C1c1ccc(F)cc1 (configuration not stated) | 0.977
CC(=O)OC[C@H]1O[C@H](c2ccc(Cl)cc2)C=C[C@@H]1OC(C)=O | 1.12
C#CCOCCOCCNC(=O)CC1(CNC(=O)c2cccc(/C=N/NS(=O)(=O)c3ccc(C)cc3)c2)CCCCC1 | 1
CCN1C(=S)NC(c2ccc(OC)cc2)C(C(=O)OC)=C1C (configuration not stated) | 1.06
CC(=O)C1=C2C=CCCN2C(=O)NC1c1cc(F)cc(Br)c1 (configuration not stated) | 1.01
C=CCN1C(=O)C2=C(C(C)=NCCN2C)C1c1ccc(F)cc1 (configuration not stated) | 1.09
CC(C)Cc1n[nH]c2c1C(c1ccsc1)N(c1ccc(C(C)(C)C)cc1)C2=O (configuration not stated) | 0.847
COc1ccc(OC)c(CNC(=O)C2=CCCN(CCc3ccccc3C)C2)c1 | 1.11
O=C1NC2(Nc3ccccc31)C(=O)Nc1ccccc12 (configuration not stated) | 1.09
COC(=O)C/C=C/[C@H](C)[C@@H](NC(=O)[C@H]1CCCN1C(=O)OC(C)(C)C)c1ccccc1 | 1.05
C[C@H]1/C=C/CC(=O)OCCCC(=O)N2CCC[C@@H]2C(=O)N[C@H]1c1ccc(Br)cc1 | 0.985

Structure (SMILES) | growth
CC1=C[C@@H](COc2cccc(F)c2)O[C@@]2(C1)C(=O)N(Cc1ccccc1)c1ccccc12 | 0.935
C=CC[C@@]12Oc3c(OC)cc(OC)cc3O[C@@]1(c1ccc(OC)cc1)[C@H](c1ccccc1)[C@@H](C(=O)OC)C2=O | 1.06
COCCN1Cc2cc(C(=O)OC)c3c(c2C1=O)c1ccccc1n3S(=O)(=O)c1ccc(OC)cc1 | 1.1
COCOc1cc(OC)cc(O)c1C(=O)/C=C/c1cccnc1 | 1.12
COC(=O)C/C=C/[C@H](C)[C@@H](NC(=O)CNC(=O)OC(C)(C)C)c1ccccc1 | 1.1
COc1cccc(C2NC(=S)NC(C)=C2C(C)=O)c1 (configuration not stated) | 0.958
COc1ccc2c(c1)C(Br)=C(CCCO)C2c1ccccc1 (configuration not stated) | 0.999
C=CC[C@@]1(O)C=CC(=O)[C@H]2[C@@H]1[C@H]1c3ccccc3[C@]2([C@@H](C)OC)c2ccccc21 | 1.18
CCc1cc2c(nc1CC)CCCN2S(=O)(=O)c1ccc(F)cc1 | 0.944
COC(=O)C1=C(C(=O)OC)[C@@H](c2ccccc2)O[C@H]1c1ccco1 | 1.07
CC1=C[C@H](COc2ccc(Br)cc2)O[C@]2(C1)C(=O)N(C)c1ccccc12 | 1.01
CC(C)Cc1c2c(nn1Cc1ccccc1)C(=O)NC2c1ccc(Br)cc1 (configuration not stated) | 1.02
CCN1C(=S)NC(c2ccc(Cl)cc2)C(C(=O)OC)=C1C (configuration not stated) | 1.09
COc1ccc(Cn2nc(-c3ccccc3)cc2Nc2cc(O)cc(O)c2C(=O)N(C)Cc2ccncc2)cc1 | 1.01
O=C1NC(c2ccc(F)cc2)C2=C1NCCN=C2c1ccccc1 (configuration not stated) | 1.08
O=C(c1c(O)cc(O)cc1Nc1ccnn1Cc1ccoc1)N1Cc2cccnc2C1 | 1.04
CC(C)(C)OC(=O)N(CCCc1ccccc1)S(=O)(=O)Nc1ccc(C(F)(F)F)cc1 | 1.13
CC(=O)C1=C(C)N(Cc2ccccc2)C(=S)NC1c1cccc(Cl)c1 (configuration not stated) | 0.899
COc1ccc(/C=C/[C@H]2c3ccccc3O[C@]3(c4ccc(OC)cc4)Oc4ccccc4C[C@H]23)cc1 | 1.03
COC(=O)C1=C(C(=O)OC)[C@@H](c2cccs2)O[C@@H]1c1ccccc1 | 1.19
CC1=C[C@H](COc2ccc(C(C)(C)C)cc2)O[C@]2(C1)C(=O)Nc1ccccc12 | 0.944

Structure (SMILES) | growth
C=CC[C@@H]1[C@H]2[C@H]3c4ccccc4[C@]([C@@H](C)OC)(c4ccccc43)[C@H]2C(=O)N1C(=O)OC(C)(C)C | 1.03
O=c1c(O)c(-c2ccccc2OCc2ccccc2Br)oc2ccccc12 | 0.975
O=C(Cc1cc(O)cc(O)c1C(=O)N1Cc2ccccc2C1)C1CC1 | 0.988
CCn1cc(Nc2cc(O)cc(O)c2C(=O)N2Cc3ccccc3C2)cn1 | 1.22
COc1cc(OC)c2c(=O)c3ccc(OC)c(OCC=C(C)C)c3oc2c1 | 1.03
COC(=O)C1=C(C)N(Cc2cccc(Cl)c2)C(=S)NC1c1cccc(Br)c1 (configuration not stated) | 0.955
COc1cccc([C@H]2NC(=O)CCC[C@@H](C)[C@@H](c3cccc(OC)c3)NC(=O)CCC[C@H]2C)c1 | 1.11
C#CCOC(C[NH3+])CNC(=O)CC1(CNC(=O)c2cccc(/C=N/NS(=O)(=O)c3ccc(C)cc3)c2)CCCCC1 (configuration not stated) | 1.03
COc1ccc(N2C(=O)C3=C(C(c4ccccc4)=NCCN3C)C2c2ccc(Br)cc2)cc1 (configuration not stated) | 0.962
C=CC[C@]12C[C@@]3(O[C@H](C(CC)CC)N=C3C[C@H](c3ccc(OC)cc3)[C@H]1C)N(Cc1ccco1)C2=O | 0.951
CCc1cccc(C)c1NS(=O)(=O)c1c(C(=O)N2CCCC2)c(C)n(C)c1C | 0.869
CC#CCN1C(=O)N(C(C)=O)C(c2ccccc2)C(C(=O)OC)=C1C (configuration not stated) | 1.09
Cc1cc2c(c(=O)o1)[C@@]1(C(=O)N(c3ccccc3)c3ccccc31)C1=C(CCCC1=O)O2 | 0.939
CC(C)CC1=NCCNC2=C1C(c1ccc3c(c1)OCO3)N(Cc1ccccc1)C2=O (configuration not stated) | 1.05
COc1ccc2c(c1)[C@]1(C(=O)N2C)C2=C(CCCC2=O)Oc2cc(C)oc(=O)c21 | 0.995
Cc1ccc(C)c(OCCCC(C)(C)COS(=O)(=O)NC(C)(C)C)c1 | 1.1
Cn1nc2c(c1-c1ccccc1)C(c1ccc(F)cc1)N(c1ccccc1)C2=O (configuration not stated) | 0.946
CC(C)CCc1cc(OCC(=O)NS(=O)(=O)OCCOCc2ccccc2)cc2oc3ccccc3c(=O)c12 | 0.931
COc1ccc([C@H]2[C@H](C(=O)NCc3ccccc3)[C@@H](C(=O)NCc3ccccc3)[C@@H]2c2ccc(OC)c(OC)c2)cc1OC | 1.05
C/C=C(\C)C1=C2CCCCOC2CCCN1S(=O)(=O)c1ccc(C)cc1 (configuration not stated) | 1.07
CC(=O)C1=C(C)NC(=O)NC1c1cccc(C)c1 (configuration not stated) | 1.09

Structure (SMILES) | growth
COc1ccccc1Cn1nc2c(c1-c1ccccc1)C(c1ccccc1)NC2=O (configuration not stated) | 0.948
CC1=Cc2cc(O)ccc2[C@@H]2C=C(C)C(=O)[C@H]2C1 | 1.36
COc1ccc(Cn2ncc(C)c2Nc2cc(O)cc(O)c2C(=O)N2Cc3ccccc3C2)cc1 | 1.12
CN(C)S(=O)(=O)Nc1ccc(C(C)(C)C)cc1 | 1.06
COc1ccc(N2C(=O)c3[nH]nc(CC(C)(C)C)c3C2c2ccc(F)cc2)cc1 (configuration not stated) | 1.04
C=CCC(Nc1ccc(OC)cc1)C1CCCCC1 (configuration not stated) | 0.918
CC(=O)OC[C@H]1O[C@H](c2ccc(C)cc2)C=C[C@H]1OC(C)=O | 0.907
O=C1N[C@@H](c2ccccc2)COCc2cn[nH]c2-c2ccccc2-c2cccc(c2)C(=O)N2C[C@H](O)C[C@@H]12 | 1.15
COc1ccc(N2C(=O)c3[nH]nc(-c4ccccc4)c3C2c2cccc(C(F)(F)F)c2)cc1 (configuration not stated) | 0.931
CC(=O)C1=C(C)N(Cc2ccc(F)cc2)C(=S)NC1c1ccccc1Br (configuration not stated) | 1
c1ccc2[nH]c(Cc3c[nH]c4ccccc34)cc2c1 | 0.722
COc1ccc(C(=O)O)c(Oc2cccc(OC)c2OCc2ccccc2)c1 | 1.08
COC(=O)c1ccc(C2c3c(CC(C)C)n[nH]c3C(=O)N2c2ccc(OC)cc2)cc1 (configuration not stated) | 1.03
Cc1ccc(S(=O)(=O)OC[C@H]2O[C@H](C#Cc3ccc(C(C)(C)C)cc3)C=C[C@H]2O)cc1 | 0.956
CCN(CC)CCCNC1=NC(c2ccccc2)C(C(=O)OC)=C(C)N1Cc1ccc(C(F)(F)F)cc1 (configuration not stated) | 1.11
Cc1ccc(C2NC(=O)C3=C2C(CC(C)C)=NCCN3C)cc1 (configuration not stated) | 1.07
COC(=O)[C@]1([C@H]2CCC(=O)O2)CC(=O)c2c(ccc(Cl)c2O)O1 | 0.928
CCC(C)c1n[nH]c2c1C(c1ccc(F)cc1)N(c1ccc(OC)cc1)C2=O (configuration not stated) | 1.02
O=C1CCCC2=C1[C@@]1(O[C@H]3C=CC=CN23)C(=O)N(c2ccccc2)c2ccccc21 | 1.11

Source: the supplement of paper PMC10986608
